Reference: the supplement of paper PMC8728848
This is one part of the list.

Legend:
Test in all cases: glycan array binding signal (z-score within array); higher = stronger binding
Settings in all cases: glycan notation: IUPAC condensed, linker removed
Fuc(a1-2)Gal = molecular target: Fuc(a1-2)Gal
How it was run: (§1)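 Arrays were curated from the Consortium for Functional Glycomics database, 3228 in total, and kept only where the protein sequence was available. Binding is expressed as a within-array Z-score. This score was averaged across arrays of the same protein sequence at different concentrations or buffers and across linkers, and negative values can be read as non-binding.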

Fuc(a1-2)Gal(b1-3)GalNAc = molecular target: Fuc(a1-2)Gal(b1-3)GalNAc
How it was run: as §1

[1] = molecular target: Fuc(a1-2)Gal(b1-3)GalNAc(a1-3)[Fuc(a1-2)]Gal(b1-4)Glc
How it was run: as §1

[2] = molecular target: Fuc(a1-2)Gal(b1-3)GalNAc(a1-3)[Fuc(a1-2)]Gal(b1-4)GlcNAc
How it was run: as §1

[3] = molecular target: Fuc(a1-2)Gal(b1-3)GalNAc(b1-3)Gal
How it was run: as §1

[4] = molecular target: Fuc(a1-2)Gal(b1-3)GalNAc(b1-3)Gal(a1-4)Gal(b1-4)Glc
How it was run: as §1

[5] = molecular target: Fuc(a1-2)Gal(b1-3)GalNAc(b1-4)[Neu5Ac(a2-3)]Gal(b1-4)Glc
How it was run: as §1

Fuc(a1-2)Gal(b1-3)GlcNAc = molecular target: Fuc(a1-2)Gal(b1-3)GlcNAc
How it was run: as §1

[6] = molecular target: Fuc(a1-2)Gal(b1-3)GlcNAc(b1-2)Man(a1-3)[Fuc(a1-2)Gal(b1-3)GlcNAc(b1-2)Man(a1-6)]Man(b1-4)GlcNAc(b1-4)GlcNAc
How it was run: as §1

[7] = molecular target: Fuc(a1-2)Gal(b1-3)GlcNAc(b1-2)Man(a1-3)[Fuc(a1-2)Gal(b1-3)GlcNAc(b1-2)Man(a1-6)]Man(b1-4)GlcNAc(b1-4)[Fuc(a1-6)]GlcNAc
How it was run: as §1

[8] = molecular target: Fuc(a1-2)Gal(b1-3)GlcNAc(b1-3)Gal(b1-4)Glc
How it was run: as §1

[9] = molecular target: Fuc(a1-2)Gal(b1-3)GlcNAc(b1-3)GalNAc
How it was run: as §1

[10] = molecular target: Fuc(a1-2)Gal(b1-3)GlcNAc(b1-3)[Fuc(a1-2)Gal(b1-3)GlcNAc(b1-6)]GalNAc
How it was run: as §1

[11] = molecular target: Fuc(a1-2)Gal(b1-3)GlcNAc(b1-3)[Fuc(a1-3)[Gal(b1-4)]GlcNAc(b1-6)]Gal(b1-4)Glc
How it was run: as §1

[12] = molecular target: Fuc(a1-2)Gal(b1-3)GlcNAc(b1-3)[Gal(b1-4)GlcNAc(b1-6)]Gal(b1-4)Glc
How it was run: as §1

[13] = molecular target: Fuc(a1-2)Gal(b1-3)GlcNAc(b1-3)[Neu5Ac(a2-6)Gal(b1-4)GlcNAc(b1-6)]Gal(b1-4)Glc
How it was run: as §1

[14] = molecular target: Fuc(a1-2)Gal(b1-3)GlcNAc6S
How it was run: as §1

[15] = molecular target: Fuc(a1-2)Gal(b1-3)[Fuc(a1-4)]GlcNAc
How it was run: as §1

[16] = molecular target: Fuc(a1-2)Gal(b1-3)[Fuc(a1-4)]GlcNAc(b1-2)Man(a1-3)[Fuc(a1-2)Gal(b1-3)[Fuc(a1-4)]GlcNAc(b1-2)Man(a1-3)]Man(b1-4)GlcNAc(b1-4)GlcNAc
How it was run: as §1

[17] = molecular target: Fuc(a1-2)Gal(b1-3)[Fuc(a1-4)]GlcNAc(b1-2)Man(a1-3)[Fuc(a1-2)Gal(b1-3)[Fuc(a1-4)]GlcNAc(b1-2)Man(a1-6)]Man(b1-4)GlcNAc(b1-4)GlcNAc
How it was run: as §1

[18] = molecular target: Fuc(a1-2)Gal(b1-3)[Fuc(a1-4)]GlcNAc(b1-2)Man(a1-3)[Fuc(a1-2)Gal(b1-3)[Fuc(a1-4)]GlcNAc(b1-2)Man(a1-6)]Man(b1-4)GlcNAc(b1-4)[Fuc(a1-6)]GlcNAc(b1-4)[Fuc(a1-6)]GlcNAc
How it was run: as §1

[19] = molecular target: Fuc(a1-2)Gal(b1-3)[Fuc(a1-4)]GlcNAc(b1-3)[Fuc(a1-3)[Gal(b1-4)]GlcNAc(b1-6)]Gal(b1-4)Glc
How it was run: as §1

[20] = molecular target: Fuc(a1-2)Gal(b1-3)[Fuc(a1-4)]GlcNAc(b1-3)[Gal(b1-4)GlcNAc(b1-6)]Gal(b1-4)Glc
How it was run: as §1

[21] = molecular target: Fuc(a1-2)Gal(b1-4)Fuc(a1-3)]GlcNAc(b1-2)Man(a1-3)[Fuc(a1-2)Gal(b1-4)[Fuc(a1-3)]GlcNAc(b1-2)Man(a1-6)]Man(b1-4)GlcNAc(b1-4)GlcNAc
How it was run: as §1

Fuc(a1-2)Gal(b1-4)Glc = molecular target: Fuc(a1-2)Gal(b1-4)Glc
How it was run: as §1

Fuc(a1-2)Gal(b1-4)Glc6S = molecular target: Fuc(a1-2)Gal(b1-4)Glc6S
How it was run: as §1

Fuc(a1-2)Gal(b1-4)GlcNAc = molecular target: Fuc(a1-2)Gal(b1-4)GlcNAc
How it was run: as §1

[22] = molecular target: Fuc(a1-2)Gal(b1-4)GlcNAc(b1-2)Man
How it was run: as §1

[23] = molecular target: Fuc(a1-2)Gal(b1-4)GlcNAc(b1-2)Man(a1-3)[Fuc(a1-2)Gal(b1-4)GlcNAc(b1-2)Man(a1-6)]Man(b1-4)GlcNAc(b1-4)GlcNAc
How it was run: as §1

[24] = molecular target: Fuc(a1-2)Gal(b1-4)GlcNAc(b1-2)Man(a1-3)[Fuc(a1-2)Gal(b1-4)GlcNAc(b1-2)Man(a1-6)]Man(b1-4)GlcNAc(b1-4)[Fuc(a1-6)]GlcNAc
How it was run: as §1

[25] = molecular target: Fuc(a1-2)Gal(b1-4)GlcNAc(b1-2)[Fuc(a1-2)Gal(b1-4)GlcNAc(b1-4)]Man(a1-3)[Fuc(a1-2)Gal(b1-4)GlcNAc(b1-2)Man(a1-6)]Man(b1-4)GlcNAc(b1-4)GlcNAc
How it was run: as §1

[26] = molecular target: Fuc(a1-2)Gal(b1-4)GlcNAc(b1-3)Gal(b1-4)GlcNAc
How it was run: as §1

[27] = molecular target: Fuc(a1-2)Gal(b1-4)GlcNAc(b1-3)Gal(b1-4)GlcNAc(b1-2)Man(a1-3)[Fuc(a1-2)Gal(b1-4)GlcNAc(b1-3)Gal(b1-4)GlcNAc(b1-2)Man(a1-6)]Man(b1-4)GlcNAc(b1-4)GlcNAc
How it was run: as §1

[28] = molecular target: Fuc(a1-2)Gal(b1-4)GlcNAc(b1-3)Gal(b1-4)GlcNAc(b1-3)Gal(b1-4)GlcNAc
How it was run: as §1

[29] = molecular target: Fuc(a1-2)Gal(b1-4)GlcNAc(b1-3)GalNAc
How it was run: as §1

[30] = molecular target: Fuc(a1-2)Gal(b1-4)GlcNAc(b1-3)[Fuc(a1-2)Gal(b1-4)GlcNAc(b1-6)]GalNAc
How it was run: as §1

[31] = molecular target: Fuc(a1-2)Gal(b1-4)GlcNAc(b1-3)[Fuc(a1-3)[Gal(b1-4)]GlcNAc(b1-6)]Gal(b1-4)Glc
How it was run: as §1

[32] = molecular target: Fuc(a1-2)Gal(b1-4)GlcNAc(b1-6)GalNAc
How it was run: as §1

[33] = molecular target: Fuc(a1-2)Gal(b1-4)GlcNAc6S
How it was run: as §1

[34] = molecular target: Fuc(a1-2)Gal(b1-4)[Fuc(a1-3)]GlcNAc
How it was run: as §1

[35] = molecular target: Fuc(a1-2)Gal(b1-4)[Fuc(a1-3)]GlcNAc(b1-2)Man(a1-3)[Fuc(a1-2)Gal(b1-4)[Fuc(a1-3)]GlcNAc(b1-2)Man(a1-6)]Man(b1-4)GlcNAc(b1-4)GlcNAc
How it was run: as §1

[36] = molecular target: Fuc(a1-2)Gal(b1-4)[Fuc(a1-3)]GlcNAc(b1-2)Man(a1-3)[Fuc(a1-2)Gal(b1-4)[Fuc(a1-3)]GlcNAc(b1-2)Man(a1-6)]Man(b1-4)GlcNAc(b1-4)[Fuc(a1-6)]GlcNAc
How it was run: as §1

[37] = molecular target: Fuc(a1-2)Gal(b1-4)[Fuc(a1-3)]GlcNAc(b1-2)[Fuc(a1-2)Gal(b1-4)[Fuc(a1-3)]GlcNAc(b1-4)]Man(a1-3)[Fuc(a1-2)Gal(b1-4)[Fuc(a1-3)]GlcNAc(b1-2)Man(a1-6)]Man(b1-4)GlcNAc(b1-4)GlcNAc
How it was run: as §1

[38] = molecular target: Fuc(a1-2)Gal(b1-4)[Fuc(a1-3)]GlcNAc(b1-3)Gal(b1-4)[Fuc(a1-3)]GlcNAc
How it was run: as §1

[39] = molecular target: Fuc(a1-2)Gal(b1-4)[Fuc(a1-3)]GlcNAc(b1-3)Gal(b1-4)[Fuc(a1-3)]GlcNAc(b1-3)Gal(b1-4)[Fuc(a1-3)]GlcNAc
How it was run: as §1

B1: MAL-II (Maackia amurensis), P93248 (protein)
chain: ATSNSKPTQVLLATFLTFFFLLLNNVNSSDELSFTINNFVPNEADLLFQGEASVSSTGVLQLTRVENGQPQQYSVGRALYAAPVRIWDNTTGSVASFSTSFTFVVKAPNPTITSDGLAFFLAPPDSQIPSGRVSKYLGLFNNSNSDSSNQIVAVEFDTYFGHSYDPWDPNYRHIGIDVNGIESIKTVQWDWINGGVAFATITYLAPNKTLIASLVYPSNQTSFIVAASVDLKEILPEWVRVGFSAATGYPTQVETHDVLSWSFTSTLEANSDAATENNVHIARYTA
- glycan array binding signal (z-score) (Fuc(a1-2)Gal): -0.232
- glycan array binding signal (z-score) (Fuc(a1-2)Gal(b1-3)GalNAc): -0.226
- glycan array binding signal (z-score) [1]: -0.134
- glycan array binding signal (z-score) [2]: -0.182
- glycan array binding signal (z-score) [3]: -0.131
- glycan array binding signal (z-score) [4]: -0.153
- glycan array binding signal (z-score) [5]: -0.232
- glycan array binding signal (z-score) (Fuc(a1-2)Gal(b1-3)GlcNAc): -0.075
- glycan array binding signal (z-score) [6]: -0.037
- glycan array binding signal (z-score) [7]: -0.188
- glycan array binding signal (z-score) [8]: -0.209
- glycan array binding signal (z-score) [9]: -0.274
- glycan array binding signal (z-score) [10]: -0.086
- glycan array binding signal (z-score) [11]: -0.218
- glycan array binding signal (z-score) [12]: -0.193
- glycan array binding signal (z-score) [13]: -0.25
- glycan array binding signal (z-score) [14]: -0.237
- glycan array binding signal (z-score) [15]: -0.185
- glycan array binding signal (z-score) [16]: -0.066
- glycan array binding signal (z-score) [17]: -0.218
- glycan array binding signal (z-score) [18]: -0.176
- glycan array binding signal (z-score) [19]: -0.218
- glycan array binding signal (z-score) [20]: -0.202
- glycan array binding signal (z-score) [21]: 0.178
- glycan array binding signal (z-score) (Fuc(a1-2)Gal(b1-4)Glc): -0.226
- glycan array binding signal (z-score) (Fuc(a1-2)Gal(b1-4)Glc6S): -0.187
- glycan array binding signal (z-score) (Fuc(a1-2)Gal(b1-4)GlcNAc): -0.176
- glycan array binding signal (z-score) [22]: -0.227
- glycan array binding signal (z-score) [23]: -0.185
- glycan array binding signal (z-score) [24]: -0.213
- glycan array binding signal (z-score) [25]: -0.117
- glycan array binding signal (z-score) [26]: -0.237
- glycan array binding signal (z-score) [27]: -0.038
- glycan array binding signal (z-score) [28]: -0.208
- glycan array binding signal (z-score) [29]: -0.148
- glycan array binding signal (z-score) [30]: -0.202
- glycan array binding signal (z-score) [31]: -0.204
- glycan array binding signal (z-score) [32]: -0.113
- glycan array binding signal (z-score) [33]: -0.236
- glycan array binding signal (z-score) [34]: -0.214
- glycan array binding signal (z-score) [35]: -0.214
- glycan array binding signal (z-score) [36]: -0.186
- glycan array binding signal (z-score) [37]: -0.073
- glycan array binding signal (z-score) [38]: -0.122
- glycan array binding signal (z-score) [39]: -0.019
